Among the test systems are EKVX NSCLC; HL-60(TB) leukemia; MDA-MB-231 breast; NCI-H522 lung; SK-MEL-2 melanoma; T-47D breast; UACC-62 melanoma; A549 NSCLC; ACHN renal; BT-549 breast; CCRF-CEM leukemia; COLO 205 colon; DU-145 prostate; HCC-2998 colon; HCT-15 colon; HS 578T breast; IGROV1 ovarian; K-562 leukemia; KM12 colon; LOX IMVI melanoma; M14 melanoma; MOLT-4 leukemia; NCI-H23 lung; NCI-H460 lung; NCI/ADR-RES ovarian; OVCAR-3 ovarian; OVCAR-8 ovarian; PC-3 prostate; RPMI-8226 leukemia; SF-268 CNS; SF-295 CNS; SF-539 CNS; SK-MEL-5 melanoma; SK-OV-3 ovarian; SN12C renal; SW-620 colon; U251 CNS; UO-31 renal; OVCAR-4 ovarian; RXF 393 renal; MALME-3M melanoma; SNB-19 CNS.

Experiment in all cases: NCI tumour cell line growth inhibition, 48 h

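Five compound concentrations were applied to cells in 96-well plates for 48 hours; endpoints were derived by simple linear interpolation of the resulting dose-response curve. Here, GI50 denotes the concentration required for 50% inhibition of growth.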 The source holds more than one record for some entries. This is not the full list of results. The source may hold further records. A record mostly stands for its own series of concentrations, which the source does not state; a value can be the end of its range.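 TGI denotes the concentration required for complete inhibition of growth.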

Turning to `Nc1ccn([C@@H]2O[C@H](COP(=O)(O)O[C@@H]3C[C@H](n4cc(F)c(=O)[nH]c4=O)O[C@@H]3COP(=O)(O)O[C@@H]3C[C@H](n4cc(F)c(=O)[nH]c4=O)O[C@@H]3COP(=O)(O)O[C@@H]3C[C@H](n4cc(F)c(=O)[nH]c4=O)O[C@@H]3COP(=O)(O)O[C@@H]3C[C@H](n4cc(F)c(=O)[nH]c4=O)O[C@@H]3COP(=O)(O)O[C@@H]3C[C@H](n4cc(F)c(=O)[nH]c4=O)O[C@@H]3COP(=O)(O)O[C@@H]3C[C@H](n4cc(F)c(=O)[nH]c4=O)O[C@@H]3COP(=O)(O)O[C@@H]3C[C@H](n4cc(F)c(=O)[nH]c4=O)O[C@@H]3COP(=O)(O)O[C@@H]3C[C@H](n4cc(F)c(=O)[nH]c4=O)O[C@@H]3COP(=O)(O)O[C@@H]3C[C@H](n4cc(F)c(=O)[nH]c4=O)O[C@@H]3COP(=O)(O)O[C@@H]3C[C@H](n4cc(F)c(=O)[nH]c4=O)O[C@@H]3COP(=O)(O)OCCOCCOCCOCCOCCOCCO)[C@H](O)C2O)c(=O)n1` (some centres not stated), the GI50 in the experiment with EKVX NSCLC is > 21.1 µM and 541 nM; in the experiment with HL-60(TB) leukemia it was 317 nM and > 100 µM; with MDA-MB-231 breast it was 4.8 µM and > 100 µM; in the experiment with NCI-H522 lung, 13.3 µM and 54.4 nM; in the experiment with SK-MEL-2 melanoma it was > 21.1 µM and 555 nM; with T-47D breast, 2.35 µM and > 100 µM. The TGI in the experiment with UACC-62 melanoma is 64.3 nM and > 100 µM.

In the case of `CC(=O)c1cnc2ccc(-c3cc(Cl)c(O)c(Cl)c3)nc2c1NC1CCC(CN(C)C)CC1` (configuration not stated), the GI50 was 11.6 nM and 158 nM with A549 NSCLC; 12.5 nM and 201 nM with ACHN renal; 12.3 nM and 183 nM in the experiment on BT-549 breast; 10.6 nM and 135 nM in the experiment with CCRF-CEM leukemia; 20.3 nM and 234 nM with DU-145 prostate; 7.95 nM and 131 nM in the experiment on HCT-15 colon. Besides, the GI50 in the experiment on HL-60(TB) leukemia was 13.7 nM and 290 nM; with HS 578T breast it was 12.2 nM and 196 nM; in the experiment with IGROV1 ovarian it was 9.88 nM and 170 nM; in the experiment on K-562 leukemia, 8.08 nM and 142 nM; in the experiment on KM12 colon it was 16.6 nM and 231 nM; with LOX IMVI melanoma, 15.6 nM and 216 nM. In addition, the GI50 in the experiment on M14 melanoma was 9.52 nM and 111 nM; in the experiment with MOLT-4 leukemia, 13.1 nM and 240 nM; in the experiment with NCI-H23 lung it was 8.81 nM and 167 nM; in the experiment on NCI-H460 lung, 11.7 nM and 199 nM; with OVCAR-3 ovarian, 8.3 nM and 135 nM; in the experiment with PC-3 prostate it was 18.1 nM and 216 nM. Besides, the GI50 in the experiment on SF-268 CNS was 21.7 nM and 248 nM; in the experiment with SF-539 CNS, 10.7 nM and 110 nM; in the experiment on SK-MEL-5 melanoma, 9.36 nM and 141 nM; in the experiment with SK-OV-3 ovarian, 13.3 nM and 200 nM; with SN12C renal, 9.82 nM and 139 nM; in the experiment with SW-620 colon, 8.83 nM and 139 nM. Besides, the GI50 in the experiment on T-47D breast is 6.14 nM and 121 nM; in the experiment on U251 CNS it was 9.76 nM and 189 nM; with UACC-62 melanoma, 13.9 nM and 254 nM; in the experiment on UO-31 renal it was 9.25 nM and 119 nM. For the same compound, the TGI in the experiment on ACHN renal was 221 nM and > 10 µM; in the experiment on COLO 205 colon, 125 nM and 1.98 µM; with EKVX NSCLC, 240 nM and 5.53 µM; in the experiment on HCC-2998 colon, 167 nM and 3.75 µM; in the experiment with HCT-15 colon, 363 nM and > 10 µM; in the experiment on HL-60(TB) leukemia it was 124 nM and 1.3 µM. Further, the TGI with IGROV1 ovarian was 111 nM and 1.75 µM; in the experiment with MOLT-4 leukemia, 86 nM and 914 nM; in the experiment on NCI-H23 lung, 74.6 nM and 1.97 µM; with NCI-H522 lung, 42.2 nM and 545 nM; with NCI/ADR-RES ovarian, 249 nM and 4.5 µM; in the experiment on OVCAR-8 ovarian, 290 nM and > 10 µM. Further, the TGI in the experiment on RPMI-8226 leukemia is 180 nM and 2.19 µM; with SF-295 CNS, 170 nM and 2.38 µM; in the experiment on T-47D breast, 37.2 nM and 482 nM; in the experiment with U251 CNS it was 244 nM and 2.45 µM; in the experiment on UACC-62 melanoma, 76.1 nM and 827 nM.

Consider `COC(=O)C1CCC(NC(=O)c2csc([C@@H](C[C@H](C(C)C)N(C)C(=O)[C@@H](NC(=O)[C@H]3CCCCN3C)C(C)C)OC(C)=O)n2)CC1` (some centres not stated), for which the TGI with MDA-MB-231 breast is 81.9 nM and > 33.3 µM. For the same compound, in the experiment with OVCAR-4 ovarian, the GI50 was 41.3 nM and 1.32 µM.

As to `COc1cc(C2C3=C(COC3=O)Oc3cc4c(cc32)OCO4)cc(OC)c1OC` (configuration not stated), the TGI was 154 nM and 16.9 µM in the experiment with HCT-15 colon; 113 nM and > 31.6 µM in the experiment on NCI-H23 lung; 94.9 nM and 13 µM in the experiment with NCI-H460 lung; 267 nM and > 31.6 µM in the experiment on OVCAR-8 ovarian; 36.3 nM and 15.1 µM in the experiment on RXF 393 renal; 244 nM and 12.7 µM with U251 CNS.

As to `CCCCCC(=O)N[C@H]1CCc2cc(OC)c(OC)c(OC)c2-c2ccc(SC)c(=O)cc21`, the TGI in the experiment with IGROV1 ovarian was 97.4 nM and > 100 µM; in the experiment with M14 melanoma, 67.7 nM and 11.4 µM; in the experiment on MALME-3M melanoma, 67.2 nM and 42.9 µM; in the experiment on OVCAR-8 ovarian it was 68 nM and 11.6 µM; with SF-295 CNS, 55.6 nM and > 100 µM; with SNB-19 CNS it was 85.5 nM and 14.3 µM. In the experiment with U251 CNS, the TGI was 55.5 nM and 10.8 µM.

Values taken from PubChem BioAssay (NCI).
